Experimental data reported in the BET-seq Pho4 binding data (Le et al. 2018).
The other results are listed elsewhere or left out. Values were computed here from the reads of four pooled replicates and scatter widely.

Molecular target: T1, Pho4 (S. cerevisiae) (UniProt P07270)
T1 sequence: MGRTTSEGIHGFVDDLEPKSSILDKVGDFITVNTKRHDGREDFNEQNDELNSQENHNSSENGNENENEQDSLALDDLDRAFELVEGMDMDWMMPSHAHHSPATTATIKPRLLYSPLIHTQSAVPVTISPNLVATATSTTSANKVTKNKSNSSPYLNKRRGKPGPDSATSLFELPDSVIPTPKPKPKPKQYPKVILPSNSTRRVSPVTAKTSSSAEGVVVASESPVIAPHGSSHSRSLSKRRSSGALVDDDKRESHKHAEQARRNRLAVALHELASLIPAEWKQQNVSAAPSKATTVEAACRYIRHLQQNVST
Test: relative binding free energy (BET-seq); higher = weaker binding
Conditions: reference: library average

Sequence	relative binding free energy
TTCGGCACGTGGGTAT	-0.14 kcal/mol
TGTTTCACGTGGCCTA	0.24 kcal/mol
AGGGTCACGTGGCGTT	0.15 kcal/mol
TTCTTCACGTGTTATG	0.18 kcal/mol
TTTGACACGTGTTCTC	0.21 kcal/mol
TTCGTCACGTGTGCTG	0.13 kcal/mol
TGGAGCACGTGTCTGG	-0.07 kcal/mol
TATGGCACGTGGCGTA	-0.1 kcal/mol
TTGCGCACGTGATATG	0.11 kcal/mol
GGTGTCACGTGTAGAC	0.28 kcal/mol
TTGAACACGTGCAAGG	0.15 kcal/mol
TGGTACACGTGCGTAT	0.01 kcal/mol
AGGAACACGTGTAGGG	0.12 kcal/mol
TTTTGCACGTGACGTA	0.02 kcal/mol
TTCGGCACGTGGCTGT	-0.12 kcal/mol
TTAGTCACGTGTTCAT	0.16 kcal/mol
TATGTCACGTGAGTTC	0.35 kcal/mol
TATTACACGTGTGGGA	0.17 kcal/mol
TTAGGCACGTGGTTTC	-0.14 kcal/mol
ATTTTCACGTGATTAC	0.27 kcal/mol
TGTGCCACGTGGTGAT	-0.25 kcal/mol
AACGGCACGTGCGGGT	-0.1 kcal/mol
ATTTGCACGTGTTTTC	0.09 kcal/mol

Sequence	relative binding free energy
GGGGCCACGTGTGGAT	0.08 kcal/mol
GAGGTCACGTGTTGCG	0.13 kcal/mol
GGTTGCACGTGAGCCG	0.24 kcal/mol
TGGTCCACGTGGTCGT	-0.02 kcal/mol
GGTCGCACGTGGTAAT	0.02 kcal/mol
GGGCACACGTGTGCTG	0.1 kcal/mol
GGGCGCACGTGAAGGA	0.29 kcal/mol
GTCGTCACGTGAGTGG	0.2 kcal/mol
TTTGACACGTGACTGG	0.09 kcal/mol
TTATACACGTGATTTA	0.1 kcal/mol
GGAGTCACGTGCCTGT	0.11 kcal/mol
TTTGACACGTGTTCAA	0.03 kcal/mol
TTATGCACGTGTAGTT	0.02 kcal/mol
TCCTACACGTGTTGGT	0.15 kcal/mol
TGAGTCACGTGGGTCC	0 kcal/mol
CGGTACACGTGTTATT	-0.01 kcal/mol
GTAGACACGTGTTTGG	-0.08 kcal/mol
GTTGACACGTGGGGGC	-0.13 kcal/mol
GAGGTCACGTGATATT	0.28 kcal/mol
CATGTCACGTGGGTGG	0 kcal/mol
GTTCGCACGTGCGGTG	-0.04 kcal/mol
TAGGACACGTGTGGCA	0.01 kcal/mol
TTGTGCACGTGCGGCA	-0.17 kcal/mol

Sequence	relative binding free energy
TTAAGCACGTGGCGCG	-0.25 kcal/mol
CGGCGCACGTGATGGG	0.13 kcal/mol
GAGGTCACGTGGCGAT	0.09 kcal/mol
TGGTGCACGTGAGCGG	0.1 kcal/mol
GGATCCACGTGGTGTA	0.02 kcal/mol
GTACGCACGTGCGTGT	-0.04 kcal/mol
GAGGTCACGTGTCGGT	0.15 kcal/mol
TTGGTCACGTGGGAGA	0.05 kcal/mol
TTAGTCACGTGAAGGT	0.31 kcal/mol
CTTTGCACGTGATGAG	0.24 kcal/mol
TACGACACGTGTAAGG	0.22 kcal/mol
GGTGTCACGTGTTAAT	0.21 kcal/mol
TGTTTCACGTGAAACG	0.21 kcal/mol
AGAACCACGTGGGGTT	-0.2 kcal/mol
TTTTGCACGTGAGTTT	0.24 kcal/mol
TGGGTCACGTGCTTAA	-0.07 kcal/mol
GGTGTCACGTGTGCCG	0.09 kcal/mol
CTAGACACGTGTATGT	-0.03 kcal/mol
GTTAACACGTGGGCAT	-0.14 kcal/mol
ATGGTCACGTGCGGTG	-0.06 kcal/mol
CATAGCACGTGGGGCA	-0.09 kcal/mol
GTAAACACGTGAGGTG	0.25 kcal/mol
GTAATCACGTGTAGTT	0.26 kcal/mol

Sequence	relative binding free energy
AAATGCACGTGAGGTG	0.17 kcal/mol
CTTTGCACGTGGTTGA	0 kcal/mol
AGAGGCACGTGGAATG	-0.11 kcal/mol
TTATGCACGTGTTTTA	-0.02 kcal/mol
TAAGGCACGTGACGGA	0.02 kcal/mol
AATTGCACGTGTGGGC	0.05 kcal/mol
TGGGACACGTGGGGGT	-0.09 kcal/mol
GTCGACACGTGTAGGG	0 kcal/mol
TGGTTCACGTGACGGA	0.31 kcal/mol
ATTGACACGTGTGCTA	0.05 kcal/mol
GGCTGCACGTGTAGTT	0.03 kcal/mol
TTTGTCACGTGGGGCG	0.01 kcal/mol
CTGTGCACGTGATGAG	0 kcal/mol
GTGTCCACGTGTGATT	0.13 kcal/mol
TATACCACGTGAGGGG	0.01 kcal/mol
AGGTGCACGTGAATTT	0.34 kcal/mol
AGTCGCACGTGAGTGT	0.21 kcal/mol
TTATACACGTGGAAGT	0.15 kcal/mol
TTAGACACGTGGCCGG	-0.1 kcal/mol
GTTTGCACGTGAGGTA	0.28 kcal/mol
GATGGCACGTGAGGGT	0.31 kcal/mol
TGGTACACGTGCTGGT	0.1 kcal/mol
TGGTGCACGTGTTTCG	0.04 kcal/mol

Sequence	relative binding free energy
AGTGACACGTGTAGTG	0.22 kcal/mol
AGTTGCACGTGCAATT	0.05 kcal/mol
GATGTCACGTGATGCG	0.26 kcal/mol
GATGGCACGTGCGGAT	-0.09 kcal/mol
GTAGCCACGTGTGTTT	0.02 kcal/mol
CTAGTCACGTGGGGAA	-0.02 kcal/mol
CTTGGCACGTGCGGAG	-0.08 kcal/mol
CTGCGCACGTGGTAGG	-0.2 kcal/mol
GGGGCCACGTGGCCTG	-0.09 kcal/mol
ACATTCACGTGGGAGG	0.13 kcal/mol
TTATTCACGTGCGGCG	0.14 kcal/mol
ATTGACACGTGGTACT	-0.02 kcal/mol
GTAGACACGTGTGGGA	0 kcal/mol
AAGTTCACGTGGTGCT	0.24 kcal/mol
AAAGGCACGTGTGTAG	-0.03 kcal/mol
TAAGACACGTGTAGGT	-0.02 kcal/mol
GAGTGCACGTGTGTCG	-0.01 kcal/mol
ATGGTCACGTGGTGAC	0.01 kcal/mol
ACGATCACGTGTGGGG	0.22 kcal/mol
GTGGACACGTGCTGGC	0.04 kcal/mol
AACTCCACGTGTGGGG	0.12 kcal/mol
TGGTCCACGTGTTAGA	0.05 kcal/mol
GGGGACACGTGATCGG	0.19 kcal/mol
